# Test results from PubChem BioAssay AID686979 (National Center for Advancing Translational Sciences (NCATS), 2013).
# Values joined by “and” are separate entries in the source; they are usually repeats but may differ in a detail not shown here. Identical values can stand only once. Among all 420,000 compounds or so, about 50,000 (12%) were called active. The shares of active, inactive and inconclusive entries below differ from those in the screen. Calls come from the whole dose curve; as a rule, active = well fitted inhibition curve with a large enough effect; inconclusive = small, poorly fitted or top-dose-only effect; inactive = flat fitted curve, though single readings scatter. Potencies of inconclusive entries are left out as doubtful fits.
# Assay: qHTS for Inhibitors of human tyrosyl-DNA phosphodiesterase 1 (TDP1): qHTS in cells in presence of CPT; note: nearly all actives have a fitted effect of over 55% in size
# Settings: chicken DT40 Tdp1-/-;hTDP1 cells + 20 nM CPT, ATP luminescence, 48 h; activity change, negative = growth inhibition: at 46.2 µM (top of the series) unless noted
# Method in brief: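 Chicken DT40 Tdp1-/- cells complemented with human TDP1, 400 cells/well, exposed to compounds plus 20 nM camptothecin for at least 48 h at 37 C; viability read as ATP content by CellTiter-Glo luminescence.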
# % is set by controls: 0 for no effect and ±100 for the full control effect; potency is the fitted concentration of half-maximal effect; tags give direction and shape of the fitted curve.
Structure (SMILES),Potency,"activity change, negative = growth inhibition"
Cn1c(=O)c2c(nc(C3CC4C5CCC(C5)C4C3)n2C)n(C)c1=O (configuration not stated),"inconclusive [inhibitor, single point]",
COc1cc2c(cc1OC)C(=O)N(C)CC2,inactive,
CC1(C)Cc2c(c(N3CCOCC3)nc3sc(-c4ccc(C(=O)O)o4)c(N)c23)CO1,,inactive: -8.3%
Cc1cc2nc(-c3ccc(=O)[nH]c3)n(Cc3ccccc3)c2cc1C,"inconclusive [inhibitor, single point]",
CC(=O)Nc1nc(-c2ccc3c(c2)OCO3)cs1,"inconclusive [inhibitor, single point]",
Cc1csc2nc(COC(=O)c3ccc(NC(=O)C(C)Oc4ccccc4)cc3)cc(=O)n12 (configuration not stated),"inconclusive [inhibitor, single point]",
CCOC(=O)COn1c(=O)c(=O)n(O)c2ccccc21,"inconclusive [inhibitor, single point]",
CCCCNC(=S)N(C)/N=C/c1ccccc1C(=O)O,,inactive: -2.86%
N#Cc1cc([N+](=O)[O-])ccc1NCCCn1ccnc1,,inactive: 9.58%
COc1ccc(Cn2c(C3CC3)nc3ccc(NC(=O)c4cccnc4)cc3c2=O)cc1,active: 7.31 µM,
CCSC(=O)NC1CCCCC1,,inactive: 7.31%
COCCNC(=O)C1CCCN(C(=O)COCc2ccccc2)CC1 (configuration not stated),,inactive: 3.83%
CCOC(=O)N1CCC(n2c(SCC(=O)Nc3ccccc3OC)nc3ccccc3c2=O)CC1,"inconclusive [inhibitor, partial curve]",
Cn1nnnc1SCC(=O)N1N=C(c2ccc(Cl)cc2)CC1c1ccco1 (configuration not stated),active: 20.6 µM,
COc1cc2c(cc1OC)C(C)N(C(=O)c1c(-c3ccccc3)noc1C)CC2 (configuration not stated),active: 18.4 µM,
Cc1cc(C)cc(NC(=O)c2ccc(CNc3c(N4CCCC4)c(=O)c3=O)cc2)c1,,inactive: -1.63%
CC(C)Sc1nc2ccccc2[nH]1,,inactive: -21.4%
Cc1cccc(C)c1NC(=O)COc1ccc2c(C)c(Cc3ccccc3)c(=O)oc2c1,"inconclusive [inhibitor, partial curve, poor fit]",
Cc1onc(-c2c(Cl)cccc2Cl)c1C(=O)N1CCN(c2ccccc2F)CC1,"inconclusive [inhibitor, single point]",
CCOC(=O)c1cnc2ccc(OCC)cc2c1NCc1ccccc1,active: 5.8 µM,
Cc1ccc(C)c(Cn2cnc3c(cnn3C(C)(C)C)c2=O)c1,,inactive: -113%
COc1ccc(-c2cc(C(=O)N3CCCCCC3)c3ccccc3n2)cc1,"inconclusive [inhibitor, single point]",
CCN=c1scc(-c2ccco2)n1/N=C/c1ccc(O)cc1,,inconclusive: -32.3% [inhibitor]
O=C(NCC1CC1)C1Cc2c(-c3ccc(Cl)cc3)ccnc2O1 (configuration not stated),"inconclusive [inhibitor, single point]",

Structure (SMILES),Potency,"activity change, negative = growth inhibition"
COc1ccc(OC)c(NC(=O)CN2C(=O)COc3ccc(S(=O)(=O)N4CCCC4)cc32)c1,"inconclusive [inhibitor, single point]",
O=C(c1nc2ncccn2n1)N1CCc2ccccc2C1,"inconclusive [inhibitor, single point]",
CC(CCC(=O)O)C1CCC2C3CC[C@H]4CC(O)CC[C@@]4(C)C3C=C[C@]12C (some centres not stated),"inconclusive [inhibitor, single point]",
Nc1cc2c3ccccc3ccc2c2ccccc12,"inconclusive [inhibitor, single point]",
COc1ccc(S(=O)(=O)N2CCOCC2)cc1C(=O)Nc1ccc(N2CCCCCC2)cc1,active: 18.4 µM,
CCN(CC)CCCNc1nc2ccccc2c2nc(-c3ccncc3)nn12,"inconclusive [inhibitor, single point]",
Cc1nnc2ccc(N3CCN(C(=O)c4ccccc4)CC3)nn12,,inactive: 6.34%
CCN1C(=NCC2CC2)N[C@@H](c2ccccc2)C(C(=O)OC)=C1C,"inconclusive [inhibitor, single point]",
CC(=O)Nc1ccc(C=CC(=O)c2ccc([N+](=O)[O-])cc2)cc1,"inconclusive [inhibitor, partial curve]",
COc1ccc(CN2CCN(C(c3ccc(F)cc3)c3ccc(F)cc3)CC2)c(OC)c1OC,active: 13.3 µM and active: 2.59 µM,
O=C(Nc1cccc(Cl)c1)Nc1nnc(-c2ccccc2)o1,"inconclusive [inhibitor, single point]",
CCc1c(C2(O)CCCCC2)[nH]c2c(C(=O)OC)cc(Cl)cc12,"inconclusive [inhibitor, single point]",
Cc1nn2c(NCCCN(C)C)c3c(nc2c1-c1ccccc1)CCC3,"inconclusive [inhibitor, single point]",
CCN(CC(=O)Nc1ccccc1C(F)(F)F)C(=O)c1oc2ccc(OC)cc2c1C,"inconclusive [inhibitor, single point]",
N/C(=N\OS(=O)(=O)c1ccc2ccccc2c1)c1ccncc1,"inconclusive [inhibitor, partial curve]",
CC(C)CCOC(=O)C1[C@H]2C(=O)N(Cc3cccs3)C[C@]23C=C[C@H]1O3 (some centres not stated),,inactive: -15.7%
C(=N\Nc1nn[nH]n1)/c1ccccc1,,inactive: -1.36%
O=C(NCc1cccc(F)c1)c1ccccc1NC(=O)c1nsc2ccccc12,"inconclusive [inhibitor, single point]",
Cc1ccc(NC(=O)CCC(=O)c2ccc(F)cc2)cc1Cl,,inactive: 1.31%
C[C@H](CO)N1C[C@H](C)[C@@H](CN(C)C(=O)c2cccc(F)c2)Oc2cc(-c3cncnc3)ccc2S1(=O)=O,,inactive: -23.7%
CC(C)(C)n1cn[nH]c1=S,,inactive: 3.85%
CN(C)c1ccc(/C=C2\C=Cc3ccccc32)cc1[N+](=O)[O-],"inconclusive [inhibitor, single point]",
O=C(NC1CCCC1)C(c1cccnc1)N(Cc1ccc(F)cc1)C(=O)c1csnn1 (configuration not stated),,inactive: 5.89%
COc1cc(CNc2ccc3[nH]c(=O)[nH]c3c2)ccc1OCc1cccc(C)c1,"inconclusive [inhibitor, single point]",

Structure (SMILES),Potency,"activity change, negative = growth inhibition"
Cn1nnnc1SCC(=O)NC(=O)Cc1ccccc1,active: 11.6 µM,
CCc1ccc(C(=O)C(C)CN2CCCCC2)cc1 (configuration not stated),"inconclusive [inhibitor, single point]",
CN(C)c1nc(Oc2ccc(/C=N/O)cc2)nc(N(C)C)n1,,inactive: -27.5%
O=C(c1ccccc1)N1CCc2cc(CNS(=O)(=O)c3ccc(Cl)s3)ccc21,"inconclusive [inhibitor, single point]",
CN1CCN(CC(O)COc2ccc(C34CC5CC(CC(C5)C3)C4)cc2)CC1 (configuration not stated),"inconclusive [inhibitor, single point]",
Cc1ccc2nc(N(CCCN(C)C)C(=O)COc3ccc(Cl)cc3)sc2c1,"inconclusive [inhibitor, single point]",
COc1ccc(NS(=O)(=O)c2ccc(S(=O)(=O)N3CCCC3)cc2)cc1,"inconclusive [inhibitor, single point]",
CCOC(=O)C1CCN(c2ncnc3c2[nH]c2cccc(OC)c23)CC1,"inconclusive [inhibitor, single point]",
O=C(N1CCCCCC1)N1CCN(S(=O)(=O)c2cccc([N+](=O)[O-])c2)CC1,"inconclusive [inhibitor, single point]",
CCS(=O)(=O)N1CCC(C(=O)NCCC2=CCCCC2)CC1,,inactive: -9.36%
Cn1nc(CC(=O)NCc2cccc3ccccc23)c2ccccc2c1=O,active: 7.31 µM,
COc1ccccc1C(C)Nc1ccc(S(=O)(=O)N2CCN(C)CC2)cc1[N+](=O)[O-] (configuration not stated),"inconclusive [inhibitor, single point]",
CC(=O)c1cccc(-c2cnc3c(NC=O)cc(-c4cccc(C(=O)N(C)C)c4)cn23)c1,"inconclusive [inhibitor, single point]",
CCCOC(=O)c1cc(-c2ccc(/C=C3/C(=O)N(C)C(=O)C(C#N)=C3C)o2)ccc1Cl,"inconclusive [inhibitor, single point]",
COc1ccccc1NC(=O)CN(c1ccccc1OC)S(=O)(=O)c1ccccc1,"inconclusive [inhibitor, single point]",
O=C(COc1ccc(F)cc1)N(Cc1ccc(Cl)cc1)C1CCS(=O)(=O)C1 (configuration not stated),,inactive: -5.72%
NS(=O)(=O)c1ccc(NC(=O)NC2CC(=O)N(c3ccc4c(c3)OCCO4)C2)cc1 (configuration not stated),,inactive: 4.94%
CC(=O)Nc1cccc(OCCCNS(=O)(=O)c2ccc(F)cc2)c1,"inconclusive [inhibitor, single point]",
Nc1ccc2oc(-c3cc(Br)ccc3Cl)nc2c1,"inconclusive [inhibitor, single point]",
CN(C(=O)C(C)(C)C)C1c2c(ccc3ccccc23)OCC1CO (configuration not stated),"inconclusive [inhibitor, partial curve]",
O=C(Nc1cccc(S(=O)(=O)N2CCOCC2)c1)c1cc(S(=O)(=O)N2CCOCC2)c(Cl)cc1Cl,active: 14.6 µM,
Cc1cc(C)c2nc(-c3ccccn3)cc(C(=O)Nc3ccc(S(=O)(=O)Nc4cc(C)on4)cc3)c2c1,"inconclusive [inhibitor, single point]",
CCC(C)NC(=O)CN(c1ccc(OC)cc1)S(=O)(=O)c1ccccc1 (configuration not stated),"inconclusive [inhibitor, single point]",
COC1=CC(=O)C=C(OC)C1=O,active: 2.31 µM and active: 651 nM,
